Data as given in the supplement of paper PMC4466236.
In all, about 33,000 sequences were measured (“E-score (dimensionless, -0.5 to 0.5)”: median about -0.058, highest 2% from about 0.35 on). Some of the results follow.

tested on: MvaT; experiment: PBM 8-mer E-score (mean of HK and ME arrays) (E-score (dimensionless, -0.5 to 0.5)); higher = stronger relative binding preference; most listed sequences are background and not binding sites
How it was run: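 Full-length P. aeruginosa MvaT, with glutathione S-transferase fused to its N-terminus (cloned into pTH6838 by isothermal assembly), was tested by protein binding microarray using a previously described protocol. Two universal double-stranded 60-mer arrays (ME and HK) were used, each with a constant 25-mer primer region and a variable 35-mer region covering all 8-mers. The rank-based 8-mer E-score (-0.5 to 0.5) is the mean of the two arrays, parsed with a custom Python script.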

Sequence | PBM 8-mer E-score
CAATGCCC | -0.251
CACCGATC | -0.0584
GCGACGAC | -0.211
AGAGTGGA | 0.0118
GAACGCGC | 0.0569
ACCACAAT | 0.0475
CCATAGAG | -0.136
GCCGTTCA | -0.0858
GAGACCTA | -0.287
GGAATAGA | 0.0718
CAGAGAAG | 0.0252
CGACCGAA | 0.0227
GAAGTTGA | 0.0448
AAGGGTAT | -0.0285
AGAGTGCG | -0.0882
AGATCTAA | 0.159
GCCCGTAA | -0.0524
GTTATTTA | 0.395
AGCTTAGC | -0.113
AAAGCTGA | -0.0551
AGGTTTCC | -0.267
CAATCGAC | 0.0172
ACGAGAGT | -0.216
AGCGTTAG | -0.134
CCCTTAGG | -0.298

Sequence | PBM 8-mer E-score
GTGAAAAA | 0.0748
AGAGGAAC | -0.217
CTCCTCCA | -0.32
ATGAATAG | 0.131
CAGGCGTC | -0.261
ACTGACAG | -0.118
ATGAACAG | -0.0132
ATGCCGTG | -0.155
AAGCTAGC | -0.143
AGGCTGAC | -0.204
CCATAATC | 0.136
AATCTGTG | 0.0128
AACTAGCG | 0.0587
CCAAGCAG | -0.0707
AGGCGTGG | -0.239
AACCAGTC | -0.137
CTCATGAC | -0.0699
AGACGGCG | -0.146
CTCGCGAC | -0.111
CCAAGACA | -0.0596
TACGGGCA | -0.173
ATAGATAG | -0.0217
ACGCACAT | 0.15
AGTCTTTA | 0.0956
AGTATCAT | 0.128

Sequence | PBM 8-mer E-score
ACACGTCA | -0.0942
ATTCCTCA | 0.129
CCGAAACA | 0.00391
CTTGACTA | 0.0728
AGCTGGAA | -0.0501
CCATTGAA | 0.0154
CTATCAGC | -0.095
GTCGGCTA | -0.13
GGATCGTA | -0.0709
CTAACCCC | -0.226
GAGGGATA | -0.0756
ACACTCCA | -0.0634
ATTACGTG | 0.217
CGCTTACG | -0.148
GGATCTAA | -0.0946
TAGCCAAA | -0.0557
ATATTGCA | 0.268
TGACCCAA | -0.0751
CTCTAGTC | -0.0615
ATTATACC | 0.337
AACACACT | 0.117
CCTAGCGC | -0.321
CAACCGTC | -0.0461
ACTTTCAC | 0.216
GCCTTCAA | -0.217

Sequence | PBM 8-mer E-score
ATATCGCC | 0.101
AGTGCATG | -0.0179
ACAAAGCT | -0.142
AAAGTACG | 0.156
GTCATACA | 0.0415
GTTTGATA | 0.138
CGCAATTA | 0.211
AATAGTAG | 0.294
ACACATTA | 0.355
ACGCATAA | 0.0642
GGCCCTCA | -0.238
AGCCCTGG | -0.299
GCCACTAC | -0.0236
GCAACGGC | -0.194
ATACGGGG | -0.188
CTTTCGAC | -0.154
GGCACGTA | -0.00829
AGTCGGAG | -0.154
AGGGGGTA | -0.342
AGCTGGCA | -0.268
CCTTGCGA | -0.186
AAACTGGC | -0.0558
ATCAGAAC | -0.0171
CAAAGGAA | -0.146
AAGTCTAT | 0.199

Sequence | PBM 8-mer E-score
CATTTGGG | -0.00258
CTGGGGTC | -0.186
CGCTATTA | 0.18
AGGTATCG | -0.114
CGTTGTAG | -0.0357
AACGCTTA | 0.0532
TATGCGAA | 0.18
AAGAGGTA | -0.0508
GACATCTC | -0.112
ACCGTCAC | -0.136
CTTAGGCA | -0.131
CATGTAAC | 0.227
TAGAGTGA | -0.00569
CCCCACTC | -0.246
AGCTGGCG | -0.221
ACCTGCTC | -0.197
ACCAGATA | 0.1
AGACTAAT | 0.203
CACCAATA | 0.233
CGCACGTC | -0.129
GCAATTCA | 0.184
GAGCCGTA | -0.0952
CGACAGAC | -0.0175
CGGAGGCA | -0.153
GTAACTAC | 0.0808

Sequence | PBM 8-mer E-score
AAATCTCT | -0.116
AACCACAA | 0.0891
GCGCCTTA | -0.0712
CGAAGCCA | -0.119
AGGTACAA | 0.0242
ATTCCGAC | 0.00924
AACTGAGG | 0.0319
GGTGAACA | 0.119
AATGACTG | 0.06
AGCAATTA | 0.231
CCTGGACG | -0.314
AACTAGGT | 0.0582
ACGTTCCA | -0.0647
ACGCAATC | -0.159
CTTGGCTA | -0.0478
ATGCCGAA | 0.0569
GAAGACGA | -0.0611
ACGTTGCA | 0.0949
ATTCGAAT | 0.218
CCACCCTC | -0.162
CCCAGGAA | -0.0332
GACCCCGC | -0.281
ACTATTTG | 0.258
AGTGGACG | -0.165
AACCTGTA | -0.0744

Sequence | PBM 8-mer E-score
CTCATCTC | -0.257
GCGCGCAC | -0.165
CGGTGACG | -0.135
GGCATGAC | -0.333
TACTAATA | 0.357
ATAACTAT | 0.388
CGTGTGTA | -0.0605
CACTTTTA | 0.209
AATCCGGA | -0.0456
AATGCGTG | 0.0979
CGCCTCAA | -0.103
ACGCCGCC | -0.222
AGTGAGTA | 0.0523
AACGCGAA | 0.0487
GTCGAGTA | 0.00658
GTTAGACA | -0.00485
AAAAAGGT | -0.0123
AAGTAACA | 0.288
GCCTTGAC | -0.164
CCGCTGAA | -0.0883
CCTGCTCA | -0.19
ACTACGAG | 0.0492
ACTCATAC | -0.0213
CTTAGACA | 0.0224
AAGGTCTA | -0.222

Sequence | PBM 8-mer E-score
AATCGCAT | -0.00561
ATTGAAGC | 0.0357
TATTTGAA | 0.338
CCAACACA | 0.0511
GCCCAGAA | -0.0885
CCTTAGCG | -0.162
CTAGTAGC | -0.151
CCAGCGGC | -0.283
ACTTTACT | 0.246
ACGGAGCA | -0.148
GAGATCGA | -0.162
GCTGACCC | -0.258
ACGATCAA | 0.0196
CAACTGGC | -0.0893
CCTCCACC | -0.303
TAGTAGAA | 0.131
ATTGTAGA | 0.16
GGGCTTAA | -0.0336
GCGGCGAA | -0.126
AGTGGTTA | 0.0672
AGGGTAGG | -0.164
CCATACGC | -0.202
AAGCCTTA | 0.108
GTCGTGCA | -0.0451
AAAGACTG | 0.0852

Sequence | PBM 8-mer E-score
AGTTATTC | 0.248
ATACAGTG | 0.112
ACTTGGTA | -0.109
CTGGGGAC | -0.264
GGGGTACC | -0.321
ATTTACCG | 0.212
GTCCGGTA | -0.22
CGTATTTC | 0.0305
AACCTCAA | -0.036
CATATGCG | -0.024
GGCTCTTA | 0.0265
GTACCAAA | -2.5e-05
GGGTTGTA | 0.0806
CGAGGACG | -0.307
ATGGATCC | -0.104
GATTCGAC | -0.0533
ATGGGGTA | 0.0903
TCGGAAGA | 0.0441
TCCATCGA | -0.0223
TGCGCGAA | 0.000508
CAATACCA | 0.216
TCTACTAA | 0.135
GGTAGAGA | -0.0761
AAATCGCG | 0.165
CTCGCTAC | -0.213

Sequence | PBM 8-mer E-score
GATAGTGA | 0.154
CCAAGGGG | -0.373
AAGATGAG | 0.0205
GAGCTAGC | -0.261
AAGAGCAC | -0.0893
CCACGCGA | -0.2
GAGCCATA | -0.0175
AAACCATA | 0.251
CGTGTCGC | -0.162
CACACTGG | -0.235
AGAAGCGA | -0.162
CAATCAGA | -0.124
ACAGTCAG | -0.156
ACAATTAA | 0.347
CACCAACC | -0.196
CATGGATA | 0.115
GCGAAAAC | 0.058
AACACTTA | 0.326
AATAACGT | 0.291
CGTTAACA | 0.114
CGGGAGTC | -0.176
ATAACAGG | 0.162
AGTGATAG | 0.119
TGCACGAA | -0.107
TCAAAAAA | 0.132

Sequence | PBM 8-mer E-score
CCAGCCGG | -0.326
TCAGTGGA | -0.0335
ACAAACGA | 0.0618
ATCTGCAT | 0.0581
ACTGTTAT | 0.306
AAGTAACT | 0.301
CGAAATCA | -0.0764
CGAGAAGA | -0.142
CGAGTTGC | 0.0126
ATCGACCG | -0.104
GCCTCACA | -0.142
ATCGCGAA | 0.045
AAGGCGAT | -0.214
CTGGGCGA | -0.222
GATAATCA | 0.176
ATGTGAAG | 0.122
TGTAGTAA | 0.224
AATTGAAA | 0.299
CATCATTC | -0.0308
CCAGAATC | -0.0382
GCTCTAAC | -0.0464
ATTCTGAC | -0.00836
CACTGAGG | -0.187
CATGGGGC | -0.232
GCAGCCAA | -0.0758

Sequence | PBM 8-mer E-score
CAGAAGTA | 0.128
CTCGGCTC | -0.287
TCAACCCA | -0.118
AGGTAAGC | -0.135
ATGAGTGA | 0.00889
CCGGCCAA | -0.141
GATTTAAC | 0.245
CTACGGCA | -0.206
GTCGTTCA | 0.0471
ATTATCCA | 0.246
GGTTTCTA | -0.099
CTGTGTTA | 0.128
CACGTTAC | 0.0428
CTTACTTA | 0.316
GGTGTAAA | 0.132
CTACACTA | 0.0472
ATTAATCG | 0.336
GGCTCTGA | -0.246
GTGGGGCA | -0.201
ATCACTTA | 0.159
CTGTAGGC | -0.125
TCTCATCA | -0.108
AATTGTGG | 0.163
ATAGTTAC | 0.253
ACAGGTCG | -0.216

Sequence | PBM 8-mer E-score
AACCAACC | 0.014
GTAGTAGA | -0.0406
CAACAACA | 0.186
CGCCAGCA | -0.211
TATATGCA | 0.412
AGTACGAA | 0.237
TAGTCGAA | 0.0969
CAGTGGAC | 0.0119
CGGAGCAG | -0.117
ATGCCTCA | -0.153
GCTGGCGA | -0.258
ATTATAGC | 0.282
CGGCGAGA | -0.172
ATGCCACC | -0.0986
CTACATAC | 0.0913
ATGCGTAG | -0.144
ACGATACT | 0.0587
CCTGCATC | -0.106
AATGCCAG | -0.0533
CCGCTAGA | -0.0325
GGGACTGA | -0.207
CTGGATGA | -0.128
AGAAAGCT | -0.0129
AGTAGGAG | -0.0489
GGGGTAAA | -0.0455

Sequence | PBM 8-mer E-score
AGAAGGTG | -0.187
AGGAAGCG | -0.269
ACGGACCT | -0.277
GGCGGGCA | -0.183
AACAGTCC | -0.0431
AGATCGCA | -0.217
TCAGATAA | 0.129
AGGCATCA | -0.119
CGAAGAGA | -0.082
ACGCCCAG | -0.233
CGCCGACC | -0.275
CCGCACCC | -0.362
CTATACAG | 0.00215
CGCACGAG | -0.245
AGTTCTTA | 0.161
AAGACACT | -0.0975
AGGTCTGG | -0.101
ATATACCC | 0.228
CGCGAGCG | -0.0493
